In the supplement of paper PMC10369915:
The list shows a part of the results. No stated cut-off is given here; in the data, active = 3.2 or more and inactive = the rest. The signal is at background level for most entries.

B1: AR_Y552_L548F_YF (peptide)
chain: VFPIDYFFPPQ
B2: AR_Y552_P549S (peptide)
chain: VLSIDYYFPPQ
B3: AR_Y858_R856C (peptide)
chain: CSRCFYQLTKL
B4: AR_Y916_K911R (peptide)
chain: RVKPIYFHTQG
B5: ARCN1_Y310 (peptide)
chain: ISDDKYGRIRL
B6: ARFGAP3_Y473_Q468H (peptide)
chain: HPAGNYSLSSV
B7: ARFGEF2_Y797 (peptide)
chain: MTKEQYIKMNR
B8: ARHGAP1_Y365_R369C (peptide)
chain: LPEENYQVLCF
B9: ARMC9_Y107_YF (peptide)
chain: IHFAIYLLKFS
B10: ASB2_Y162 (peptide)
chain: RETPLYKACER
B11: ASIC2_Y357_D354G (peptide)
chain: EKGSNYCLCRT
B12: ASL_Y376 (peptide)
chain: TDLAYYLVRKG
B13: ASS1_Y113_G117S (peptide)
chain: REGAKYVSHSA
B14: ASS1_Y322_G324S (peptide)
chain: FAELVYTSFWH
B15: ASS1_Y359_R363L (peptide)
chain: LKGQVYILGLE
B16: ASS1_Y83_R86C_YF (peptide)
chain: QSSALYEDCFL
B17: ASS1_Y83_S79P (peptide)
chain: QPSALYEDRYL
B18: ASS1_Y87_R86H (peptide)
chain: LYEDHYLLGTS
B19: ATM_Y1415_L1420F (peptide)
chain: KSPDSYQKILF
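Further: displayed peptides selected on beads carrying the immobilized SH2 domain, with library peptides lacking any tyrosine serving as negative controls.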

What follows are binders tested against SHP2 C-SH2 domain E139D (assay: enrichment score (SH2-bound / input frequency) (ratio); bacterial display of known human phosphotyrosine sites (pTyr-Var adds point mutants) read by sequencing; higher = stronger binding; tyrosines were phosphorylated by kinases first). Details: peptide library: pTyr-Var.
B1 was tested, and the enrichment score was inactive: 1.8. For B2, the enrichment score was inactive: 1.93. B3 was tested, and the enrichment score was inactive: 2.6. B4 was tested, and the enrichment score was active: 5.69. In the case of B5, the enrichment score is reported as inactive: 0.656. In the case of B6, the enrichment score is reported as inactive: 0.744. In the case of B7, the enrichment score is reported as inactive: 0.925. With B8 the enrichment score was inactive: 1.08. For B9, the enrichment score was active: 3.22. With B10 the enrichment score was inactive: 0.819. With B11 the enrichment score was inactive: 0.676. B12 was tested, and the enrichment score was inactive: 0.818. With B13 the enrichment score was inactive: 0.529. B14 was tested, and the enrichment score was inactive: 2.02. For B15, the enrichment score was inactive: 1.37. B16 was tested, and the enrichment score was inactive: 1.05. In the case of B17, the enrichment score is reported as inactive: 0.47. For B18, the enrichment score was inactive: 0.947. In the case of B19, the enrichment score is reported as inactive: 0.889.

Each binder was assayed against SHP2 C-SH2 domain wild-type in the same assay as above. Details: peptide library: pTyr-Var.
With B1 the enrichment score was inactive: 1.61. With B2 the enrichment score was inactive: 2.25. For B3, the enrichment score was inactive: 2.6. B4 was tested, and the enrichment score was active: 4.51. In the case of B5, the enrichment score is reported as inactive: 0.728. With B6 the enrichment score was inactive: 0.764. With B7 the enrichment score was inactive: 0.676. In the case of B8, the enrichment score is reported as inactive: 2.26. For B9, the enrichment score was inactive: 2.54. With B10 the enrichment score was inactive: 0.678. B11 was tested, and the enrichment score was inactive: 0.527. For B12, the enrichment score was inactive: 0.698. B13 was tested, and the enrichment score was inactive: 0.492. For B14, the enrichment score was inactive: 1.73. B15 was tested, and the enrichment score was inactive: 0.938. For B16, the enrichment score was inactive: 1.12. For B17, the enrichment score was inactive: 0.604. B18 was tested, and the enrichment score was inactive: 0.929. With B19 the enrichment score was inactive: 0.963.

What follows are binders tested against SHP2 N-SH2 domain L43F in the same assay as above. Details: peptide library: pTyr-Var.
B1 was tested, and the enrichment score was inactive: 1.78. For B2, the enrichment score was inactive: 2.28. For B3, the enrichment score was inactive: 2.71. With B4 the enrichment score was active: 5. For B5, the enrichment score was inactive: 0.587. With B6 the enrichment score was inactive: 0.709. B7 was tested, and the enrichment score was inactive: 0.621. B8 was tested, and the enrichment score was inactive: 1.41. With B9 the enrichment score was inactive: 2.76. With B10 the enrichment score was inactive: 0.387. B11 was tested, and the enrichment score was inactive: 0.759. With B12 the enrichment score was inactive: 0.717. With B13 the enrichment score was inactive: 0.465. For B14, the enrichment score was inactive: 2.08. B15 was tested, and the enrichment score was inactive: 0.932. B16 was tested, and the enrichment score was inactive: 0.818. For B17, the enrichment score was inactive: 1.34. B18 was tested, and the enrichment score was inactive: 1.29. In the case of B19, the enrichment score is reported as inactive: 0.911.

These binders were tested against SHP2 N-SH2 domain T42A in the same assay as above. Details: peptide library: pTyr-Var.
For B1, the enrichment score was inactive: 1.92. B2 was tested, and the enrichment score was inactive: 2.44. B3 was tested, and the enrichment score was inactive: 2.37. B4 was tested, and the enrichment score was active: 3.6. With B5 the enrichment score was inactive: 0.586. With B6 the enrichment score was inactive: 0.858. B7 was tested, and the enrichment score was inactive: 0.717. B8 was tested, and the enrichment score was inactive: 0.808. For B9, the enrichment score was inactive: 2.48. In the case of B10, the enrichment score is reported as inactive: 0.559. With B11 the enrichment score was inactive: 0.482. In the case of B12, the enrichment score is reported as inactive: 0.836. B13 was tested, and the enrichment score was inactive: 0.437. For B14, the enrichment score was inactive: 1.49. For B15, the enrichment score was inactive: 1.05. In the case of B16, the enrichment score is reported as inactive: 0.757. In the case of B17, the enrichment score is reported as inactive: 0.612. With B18 the enrichment score was inactive: 1.23. In the case of B19, the enrichment score is reported as inactive: 1.43.

The binders below were run against SHP2 N-SH2 domain T52S in the same assay as above. Details: peptide library: pTyr-Var.
For B1, the enrichment score was inactive: 1.99. For B2, the enrichment score was inactive: 2.51. B3 was tested, and the enrichment score was inactive: 2.71. In the case of B4, the enrichment score is reported as active: 4.75. B5 was tested, and the enrichment score was inactive: 0.591. In the case of B6, the enrichment score is reported as inactive: 1.03. For B7, the enrichment score was inactive: 0.715. B8 was tested, and the enrichment score was inactive: 0.564. B9 was tested, and the enrichment score was inactive: 2.61. For B10, the enrichment score was inactive: 0.488. B11 was tested, and the enrichment score was inactive: 0.642. B12 was tested, and the enrichment score was inactive: 0.779. B13 was tested, and the enrichment score was inactive: 0.493. In the case of B14, the enrichment score is reported as inactive: 1.69. In the case of B15, the enrichment score is reported as inactive: 1.07. With B16 the enrichment score was inactive: 0.995. For B17, the enrichment score was inactive: 0.557. B18 was tested, and the enrichment score was inactive: 1.36. With B19 the enrichment score was inactive: 0.884.

Each binder was assayed against SHP2 N-SH2 domain wild-type in the same assay as above. Details: peptide library: pTyr-Var.
B1 was tested, and the enrichment score was inactive: 1.85. With B2 the enrichment score was inactive: 1.94. For B3, the enrichment score was inactive: 2.03. For B4, the enrichment score was active: 4.47. With B5 the enrichment score was inactive: 0.755. With B6 the enrichment score was inactive: 0.656. For B7, the enrichment score was inactive: 0.758. B8 was tested, and the enrichment score was inactive: 1.4. For B9, the enrichment score was inactive: 2.56. For B10, the enrichment score was inactive: 0.494. B11 was tested, and the enrichment score was inactive: 0.69. B12 was tested, and the enrichment score was inactive: 0.608. In the case of B13, the enrichment score is reported as inactive: 0.479. With B14 the enrichment score was inactive: 1.71. For B15, the enrichment score was inactive: 0.916. For B16, the enrichment score was inactive: 1.05. For B17, the enrichment score was inactive: 1.12. With B18 the enrichment score was inactive: 1.43. For B19, the enrichment score was inactive: 0.939.
